# Laboratory results reported in publication PMC4336329 (PLoS ONE, 2015).
# The campaign covered roughly 310,000 compounds. About 14,000 (4.5%) showed an effect of 50% or more. Effects have a minus sign here. Some of the results follow.
# Target: human ether-à-go-go-related gene (hERG) potassium channel (human, UniProt Q12809)
# Experiment: primary screen, population patch clamp on CHO cells stably expressing hERG
# 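Further: peak tail current of the secondary pulse compared with the same well before compound.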
# Sequence of human ether-à-go-go-related gene (hERG) potassium channel (Q12809 whole entry, looked up): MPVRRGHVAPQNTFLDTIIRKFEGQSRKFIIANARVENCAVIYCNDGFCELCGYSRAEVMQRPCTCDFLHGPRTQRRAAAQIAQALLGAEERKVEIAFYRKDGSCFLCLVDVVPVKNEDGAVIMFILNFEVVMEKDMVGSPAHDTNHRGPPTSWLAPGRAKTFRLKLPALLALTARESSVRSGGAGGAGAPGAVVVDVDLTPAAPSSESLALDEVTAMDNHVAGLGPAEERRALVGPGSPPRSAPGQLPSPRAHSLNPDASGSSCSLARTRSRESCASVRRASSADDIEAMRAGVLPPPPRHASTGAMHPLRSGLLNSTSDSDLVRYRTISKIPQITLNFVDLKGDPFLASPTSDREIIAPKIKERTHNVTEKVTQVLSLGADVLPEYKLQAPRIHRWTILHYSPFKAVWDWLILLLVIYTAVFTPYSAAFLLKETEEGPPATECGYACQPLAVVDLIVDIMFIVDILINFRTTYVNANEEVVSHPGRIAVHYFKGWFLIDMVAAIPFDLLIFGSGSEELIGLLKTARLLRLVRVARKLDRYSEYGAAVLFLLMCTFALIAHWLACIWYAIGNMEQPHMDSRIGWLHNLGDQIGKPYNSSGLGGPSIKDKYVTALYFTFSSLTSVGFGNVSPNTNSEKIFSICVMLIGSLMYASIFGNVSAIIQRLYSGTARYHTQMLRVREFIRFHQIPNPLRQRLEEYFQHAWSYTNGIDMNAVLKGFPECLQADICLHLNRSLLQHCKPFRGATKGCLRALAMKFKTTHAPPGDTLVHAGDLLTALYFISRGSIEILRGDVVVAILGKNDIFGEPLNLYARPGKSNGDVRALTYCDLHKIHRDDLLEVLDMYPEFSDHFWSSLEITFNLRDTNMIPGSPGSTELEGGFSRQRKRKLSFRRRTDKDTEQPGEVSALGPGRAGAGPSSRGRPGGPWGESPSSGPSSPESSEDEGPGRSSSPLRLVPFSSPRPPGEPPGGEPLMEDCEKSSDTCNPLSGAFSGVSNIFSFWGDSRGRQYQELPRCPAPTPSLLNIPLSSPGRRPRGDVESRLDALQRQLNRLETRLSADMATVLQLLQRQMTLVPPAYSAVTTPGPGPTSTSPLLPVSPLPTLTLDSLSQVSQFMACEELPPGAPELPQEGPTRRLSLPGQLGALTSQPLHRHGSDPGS
row,Compound,"hERG current change (%, negative = inhibition) at 10uM [%]"
1,CCCC1CCC(=NNC(=O)OC(C)(C)C)CC1 (stereo not shown),19.6
2,CCOC(=O)C1=C(c2ccccc2)Nc2ncnn2C1c1cccc(OC)c1OC (stereo not shown),15.9
3,Cc1cccc(N2CCN(S(=O)(=O)c3ccc(-c4ccc(=O)[nH]n4)o3)CC2)c1C,11.8
4,Nc1nc(CSc2nc3ccccc3[nH]2)cs1,15.3
5,CCN(CCNCC(O)COCc1ccc(Cl)cc1)c1cccc(C)c1.O=C(O)C(=O)O (stereo not shown),-18.2
6,Cc1cc(=O)oc(C)c1C(=O)Nc1c(C)n(C)n(-c2ccccc2)c1=O,13
7,COC(=O)c1ccc(C23CC4(C2)[C@H](CN(C)[C@@H]4c2ccccc2)C3c2ccc(C(F)(F)F)cc2)cc1 (stereo partly shown),-11.7
8,Nc1ccccc1C(=O)N=Nc1[nH]c(N)c2ccccc12,29.2
9,Cc1cccc(C)c1NC(=O)CN(C)C(=O)C1CCN(c2ncnc3sc(C)c(C)c23)CC1,-46.7
10,O=C(Nc1cccc2ccccc12)c1nn(C23CC4CC(CC(C4)C2)C3)cc1Br,9.58
11,CCOC(=O)c1sc(SC)c(C(C)=O)c1C,-0.635
12,O=C(NCC(=O)N1CCN(c2cccc(Cl)c2)CC1)c1ccc(Br)o1,-78.4
13,COc1cc2c(cc1OC)C(C)N(S(=O)(=O)c1cccs1)CC2 (stereo not shown),-12.9
14,Cc1cc(C(=O)NC(C)c2ccncc2)no1 (stereo not shown),4.89
15,COc1ccccc1/C=C/c1nc2ccccc2c(=O)o1,-6.91
16,O/N=C(\COc1ccccc1O)c1ccccc1,-4.58
17,CC(=O)N1CCC(=NNc2ncc(C(F)(F)F)cc2Cl)CC1,2.73
18,Cc1ccc(OCC(=O)N/N=C/c2cccn2C)cc1C,-8.95
19,NC(=NC(=O)c1ccc(OCC(F)(F)F)nc1)c1ccc(Cl)cc1,17.9
20,O=C(Nc1cccc([N+](=O)[O-])c1)Nc1ccc2c(c1)OCCO2,-1.17
21,CC(C)N1C(=O)CCC1C(=O)NCc1ccccc1Cl (stereo not shown),10.2
22,CCOC(=O)/C(C#N)=C/c1cccc(F)c1,-0.926
23,CCOC(=O)CNC(=O)N1CCCC(C(=O)c2cccc(Cl)c2)C1 (stereo not shown),-18.6

row,Compound,"hERG current change (%, negative = inhibition) at 10uM [%]"
1,O=C(CNC(=O)c1ccco1)NCc1nc2ccccc2[nH]1,7.66
2,FC(F)(F)c1cccc(Cc2noc(CN3CCCC(OCc4ccccn4)C3)n2)c1 (stereo not shown),-36.4
3,O=[N+]([O-])c1cc(S(=O)(=O)C(F)(F)F)ccc1Sc1nc2ccccc2[nH]1,10.3
4,O=c1c(/C=C(\O)c2ccc(F)cc2)nc2ccccc2n1-c1ccccc1,2.66
5,C(=N/Nc1nccs1)/c1cccnc1,10.1
6,COCc1cc(NCc2ccc(Cl)cc2)nc(C)n1,-10
7,CN(C)c1ccc(C(=S)N2CCN(C(=S)Nc3cccc4ccccc34)CC2)cc1,-1.42
8,CC(C)CCNC(=O)CCNS(=O)(=O)c1ccc(Cl)cc1,-6.66
9,COc1ccccc1CNC(=O)COC(=O)Cc1c[nH]c2ccccc12,-29.5
10,CCCCOC(=O)CCCN1C(=O)/C(=C2\SC(=S)N(CCCC(=O)OCCCC)C2=O)SC1=S,9.24
11,C=CC#CC1(O)CC(C)[N+](C)(C)CC1C.[I-] (stereo not shown),17.4
12,Cc1c(C(=O)NCCSCc2cccc(C(F)(F)F)c2)cnn1-c1ccc(F)cc1,-64.6
13,CCn1c2ccccc2c2nnc(SCCN3CCCCC3)nc21,-39.1
14,COc1ccc(Nc2nc(N)nc(CSc3nnc(N)s3)n2)cc1,23.8
15,CCc1nc(SCC(=O)O)c(C#N)c2c1CCCC2,15.3
16,CCOc1ccc(CC(=O)NCc2ccc3c(c2)cc(C)n3C)cc1,4.51
17,Cc1ccc(C)c(N(C(=O)c2csnn2)C(C(=O)NC2CCCC2)c2ccncc2)c1 (stereo not shown),16.7
18,CCCCCOc1ccc(N2C(=O)CC(N(O)c3ccccc3)C2=O)cc1 (stereo not shown),12.3
19,COc1ccc(OC)c(C(=O)c2coc3ccc(OC)cc23)c1,-11.5
20,O=c1c([N+](=O)[O-])cc(C(F)(F)F)cn1Cc1c(Cl)cccc1Cl,13.3
21,O=C(O)CC12CC3CC(C1)CC(n1ncc(NCc4ccc(F)cc4)c(Cl)c1=O)(C3)C2,-20.9
22,CCOC(=O)c1c(C)n(CC(O)c2ccccc2)c2ccc(O)cc12 (stereo not shown),11.7
23,Cc1ccc(OCC(=O)OC2CCS(=O)(=O)C2)cc1 (stereo not shown),0.661

row,Compound,"hERG current change (%, negative = inhibition) at 10uM [%]"
1,O=C(Nc1nc(-c2ccc(S(=O)(=O)N3CCCC3)cc2)cs1)c1cccs1,6.79
2,COc1ccc(NC(=O)c2ccc(COc3ccccc3)o2)cc1,3.14
3,CCOC(=O)C(=NC1CCS(=O)(=O)C1)NNc1cc(Cl)ccc1Cl (stereo not shown),-17.1
4,CCn1c(C)nc2cc(C(=O)NNC(=O)Nc3cccc(Cl)c3)ccc21,9.76
5,Cn1c(NC2CCCCC2)cc(=O)n(C)c1=O,6.13
6,CC(=O)c1c(C)[nH]c(C(=O)Nc2cccc(C#N)c2)c1C,-5.09
7,CCCN1C2=NCCN2c2ccccc21.Cl,-9.75
8,CCc1noc(C)c1C(=O)OCC(=O)Nc1ncc(Cl)cc1Cl,4.64
9,CCC(=O)N1CCc2cc(Br)cc(S(=O)(=O)NCC3CCCN3CC)c21 (stereo not shown),8.65
10,COc1ccc(N2CCC(CNC(=S)Nc3ccc(C)cc3C)C2)cc1 (stereo not shown),-8.02
11,Cn1c(COc2ccccc2)nnc1SCC(=O)Nc1ccc(S(N)(=O)=O)cc1,-12.8
12,CSC(=NC#N)N1CCN(c2ccc(Cl)cc2)CC1,-38.3
13,CC(=O)Nc1ccc2c(c1)n(C)c(=O)n2C,11.3
14,O=C(COC(=O)c1cc(-c2ccccc2)nc2ccccc12)NCC1CCCO1 (stereo not shown),-22.4
15,COc1ccc(CN2CC(C(=O)NCCCN3CCOCC3)CC2=O)cc1 (stereo not shown),-5.39
16,CC(=O)Nc1nc2ccccc2n1Cc1ccc(C)cc1,-1.03
17,CCC1(c2ccccc2)NC(=O)N(C)C1=O (stereo not shown),-29.6
18,CCC(c1nnnn1Cc1ccco1)N(Cc1ccccc1OC)Cc1cc2cc(C)ccc2[nH]c1=O (stereo not shown),-2.41
19,CCOC(=O)c1c(C)c(C(=O)Nc2ccccc2)c(C)n1CC,2.32
20,CN(C(=O)c1ccccn1)c1nnc(-c2cnccn2)s1,-22.5
21,COc1ccc(N2CCN(C(=O)COC(=O)CCc3ccccc3)CC2)cc1,-0.829
22,Cc1cc(=O)[nH]c(SCC(=O)Nc2nonc2C)n1,17.8
23,C/C(=N\NC(=S)Nc1ccc(C)cc1)c1cc2ccccc2o1.CN(C)C=O,13

row,Compound,"hERG current change (%, negative = inhibition) at 10uM [%]"
1,CCN(CCNC(=O)C1CCN(S(=O)(=O)c2c(C)noc2C)CC1)c1ccccc1,-1.06
2,CCCCn1c(N)c(N(CC(C)C)C(=O)CSCc2cccc(C)c2)c(=O)[nH]c1=O,12.7
3,N#Cc1cc(N2CCOCC2)nc2ccccc12,1.25
4,COc1ccc(CCNC(=O)C2CC(=O)N(c3ccc(C)cc3)C2)cc1 (stereo not shown),12.7
5,CCN(CC)CCN(C(=O)CCOc1ccccc1)c1nc2c(F)cc(F)cc2s1.Cl,-8.13
6,COC(=O)c1ccc(/C=N/OCC(=O)NC2CCCC(C)C2C)cc1 (stereo not shown),-5.19
7,CCCC1C(=O)Nc2ccccc2N1C(=O)c1ccc(C(C)(C)C)cc1 (stereo not shown),19.3
8,CN(C)c1ccc(CNC(=O)C2CCN(S(=O)(=O)c3ccc4c(c3)oc(=O)n4C)CC2)cc1,9.88
9,Cc1ccc(S(=O)(=O)Nc2cccc(C(=O)N3CCCC3)c2)cc1F,-0.933
10,O=C(O)c1cn(Cc2ccccc2)nc1-c1ccccc1,19.7
11,Cc1ccc2[nH]c(O)c(N=Nc3ccccc3C)c2c1,15.1
12,Cc1occc1C(=O)N/N=C/c1cccnc1,1.61
13,Cc1cccc2cc(COC(=O)c3cccnc3)c(=O)[nH]c12,-2.37
14,O=C(CCn1ccc2ccccc21)Nc1ccc(N2CCOCC2)cc1,3.42
15,CCN(CC)S(=O)(=O)c1ccc(N2CCOCC2)c(NC(=O)C2COc3ccccc3O2)c1 (stereo not shown),-4.79
16,Cc1ncoc1C(=O)NC1CC(C)(C)Cc2c1cnn2-c1ccc(F)cc1 (stereo not shown),-20.7
17,CSC1CCCCC1(O)CSc1nc2ccccc2o1 (stereo not shown),4.87
18,O=C(C1CCN(S(=O)(=O)c2cnc[nH]2)CC1)N1CCN(c2ccc([N+](=O)[O-])cc2)CC1,-1.78
19,CCc1c(C)nc(N)nc1N1N=C1SCC#N,-1.77
20,Cn1c(CSc2ncn[nH]2)nc2ccccc21,4.54
21,CCOC(=O)C1CCCN(C(=O)c2cc3cc(Br)ccc3oc2=O)C1 (stereo not shown),-2.16
22,C=CCNc1nc2ccccc2nc1NS(=O)(=O)c1ccc(OC)cc1,4.7
